Assay results as given in PubChem BioAssay AID485360 (National Center for Advancing Translational Sciences (NCATS), 2010).
The campaign covered roughly 230,000 compounds. About 1,500 (0.65%) were called active. The inconclusive results got no clear call from the source; some entries with a clear call stand among them for comparison. Calls follow the shape of the dose curve; as a rule, active = well fitted inhibition curve with a large enough effect; inconclusive = small, poorly fitted or top-dose-only effect; inactive = no such curve, though single readings can be large or run the other way. A potency beside an inconclusive call is a rough fit, not a confirmed value.
Also: nearly all actives have a fitted effect of over 60% in size.
Potency is read from the fitted curve at half-maximal effect; tags tell the direction and shape of the fitted curve.

The compounds below were run against Lethal(3)malignant brain tumor-like protein 1 (Homo sapiens) (UniProt Q9Y468) (assay: qHTS Assay for the Inhibitors of L3MBTL1). Details: AlphaScreen L3MBTL1–H3K9me1 peptide binding; series mostly up to 57.1 µM.
UniProt Q9Y468, sequence (Q9Y468 whole entry, looked up): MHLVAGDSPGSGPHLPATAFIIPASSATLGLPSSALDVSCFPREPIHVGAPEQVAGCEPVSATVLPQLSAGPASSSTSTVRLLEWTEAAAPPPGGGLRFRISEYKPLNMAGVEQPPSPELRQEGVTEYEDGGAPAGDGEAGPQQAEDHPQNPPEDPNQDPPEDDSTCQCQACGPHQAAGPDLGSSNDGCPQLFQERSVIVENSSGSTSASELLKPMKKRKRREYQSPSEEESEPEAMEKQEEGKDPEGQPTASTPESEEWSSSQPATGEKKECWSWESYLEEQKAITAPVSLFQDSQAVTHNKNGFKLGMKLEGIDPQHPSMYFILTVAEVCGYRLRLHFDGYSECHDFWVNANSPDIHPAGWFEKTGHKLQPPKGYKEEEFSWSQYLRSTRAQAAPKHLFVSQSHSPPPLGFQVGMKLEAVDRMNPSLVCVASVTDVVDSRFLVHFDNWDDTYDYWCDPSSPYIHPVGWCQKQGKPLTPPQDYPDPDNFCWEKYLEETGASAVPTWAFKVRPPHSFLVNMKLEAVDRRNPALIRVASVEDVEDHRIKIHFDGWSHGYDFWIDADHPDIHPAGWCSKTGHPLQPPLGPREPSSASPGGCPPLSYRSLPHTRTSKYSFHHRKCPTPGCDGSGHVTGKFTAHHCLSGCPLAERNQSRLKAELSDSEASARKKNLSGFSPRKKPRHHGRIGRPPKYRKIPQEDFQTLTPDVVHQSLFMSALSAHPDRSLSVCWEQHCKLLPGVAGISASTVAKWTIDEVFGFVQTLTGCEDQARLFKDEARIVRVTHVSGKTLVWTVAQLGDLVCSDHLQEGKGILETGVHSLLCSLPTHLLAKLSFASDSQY
From the text: The histone code is comprised of many post-translational modifications that occur mainly in histone tail peptides. The identity and location of these marks are read by a variety of histone binding proteins that are emerging as important regulators of cellular differentiation and development and are increasingly being implicated in numerous disease states. Small molecule probes that disrupt the interaction between histone binding proteins and chromatin would enable a systematic chemical biology study of proteins that read the histone code and could potentially reveal new targets for drug discovery. However, no such small molecules are known. This dearth of quality molecular probes can largely be attributed to the novelty of the target class and the lack of screening assays. This proposal details the development of the first high-throughput screening assay for the discovery of inhibitors of methyl-lysine binding proteins and how it can be be used to initiate a full-scale discovery effort for antagonists of histone binding proteins. Specifically, this work focuses on an AlphaScreen(tm)-based HTS assay for Malignant Brain Tumor (MBT) domain-containing proteins, which bind to the lower methylation states of lysine residues present in histone tail peptides.
To each well, 2 uL of L3MBTL1 protein (final 50 nM) and 1 uL biotinylated histone peptide monomethylated at Lys9 [b-AHA-H3(1-15)K9me1] (final 75 nM) was added using a nanoliter dispenser. Formation of a protein-peptide complex proceeded at room temperature for 30 min. A Kalypsys pin-tool was employed to transfer 23 nL of library compound solution in DMSO to each well. Cefsulodin, found in a pilot screen of the LOPAC library to be a weak inhibitor of L3MBTL1 binding, was used as an intraplate control with a 16-point titration in duplicate. Following a 30 min incubation of the protein-peptide complex with compounds at room temperature, a mixture of 40 ug/mL each streptavidin-coated donor and nickel chelate acceptor AlphaScreen beads (final 10 ug/mL) was added in a 1 uL dispense for a final volume of 4 uL. Plates were incubated, protected from the light for 30 min at room temperature. Microplates were then be read on an EnVision multilabel plate reader using the 1,536 plate HTS AlphaScreen aperture (excitation time 80 ms, measurement time 240 ms).
With O=C(CN1CCOCC1)N/N=C/c1ccccc1 the Potency was “inactive”.
In the case of CC1=C(C(=O)OCC(Cl)(Cl)Cl)N2C(=O)C(NC(=O)Cc3ccccc3)C2SC1 (stereo not drawn), the Potency is reported as inconclusive: 0.0891 µM [inhibitor, full curve, poor fit].
In the case of O=S(=O)(c1cccc2nonc12)N1CCN(c2ccccc2F)CC1, the Potency is reported as “inactive”.
With CN(C)c1ccc(C2CC(=O)C=C(Nc3ccccc3N)C2)cc1 (stereo not drawn) the Potency was inconclusive: 22.4 µM [inhibitor, single point].
CN(C(=O)c1ccc2c(=O)n3c(nc2c1)CCCCC3)c1ccccc1 was tested, and the Potency was inconclusive: 6.31 µM [inhibitor, single point].
In the case of O=C(NCC(=O)N(c1cccc(F)c1)C(C(=O)NC1CCCC1)c1cccnc1)c1cccs1 (stereo not drawn), the Potency is reported as inconclusive: 0.1 µM [inhibitor, full curve, poor fit].
In the case of S=C1NCN(Cc2ccco2)CN1c1ccccc1, the Potency is reported as inconclusive: 0.794 µM [inhibitor, single point].
For CC1=C(C(=O)OCc2ccccc2)C(c2ccc(Cl)cc2Cl)NC(=O)N1CCCC(=O)O (stereo not drawn), the Potency was inconclusive: 2.51 µM [inhibitor, full curve].
In the case of Fc1ccccc1Cn1cnc(NC(=S)NCCc2ccccc2)n1, the Potency is reported as inconclusive: 17.8 µM [inhibitor, single point].
With COc1cc(C2Nc3cccc4cccc(c34)N2)ccc1OC(C)=O the Potency was inconclusive: 39.8 µM [inhibitor, single point].
With C=CCn1c(O)c(N=NC(=S)Nc2cccc(OC)c2)c2ccccc21 the Potency was inconclusive: 15.8 µM [inhibitor, partial curve].
With CC1CCCCC1NC(=O)COC(=O)c1ccc2ccccc2n1 (stereo not drawn) the Potency was inconclusive: 39.8 µM [inhibitor, partial curve, poor fit].
COC(=O)c1c(Cl)c2n3ccccc3c(C)c(-c3ccccc3)c-2c1C(=O)OC was tested, and the Potency was inconclusive: 35.5 µM [inhibitor, partial curve].
Cc1noc(C)c1S(=O)(=O)Nc1ccc2c(c1)C(=O)N([C@H](C)CO)C[C@H](C)[C@@H](CN(C)S(=O)(=O)c1ccccc1)O2 was tested, and the Potency was “inactive”.
COCCCN(C(=S)Nc1ccc(C)cc1Cl)C(C)c1ccncc1 (stereo not drawn) was tested, and the Potency was “inactive”.
In the case of O=C(Oc1ccc(-c2cnc3ccccc3n2)cc1)c1cccc([N+](=O)[O-])c1, the Potency is reported as “inactive”.
In the case of O=C(Nc1nnc(-c2ccccc2)o1)c1cccc(S(=O)(=O)N2CCOCC2)c1, the Potency is reported as inconclusive: 39.8 µM [inhibitor, single point].
In the case of O=C1CCCC2=C1C(c1ccc(O)c(O)c1)Nc1ccc3ncccc3c12 (stereo not drawn), the Potency is reported as inconclusive: 31.6 µM [inhibitor, partial curve].
In the case of CC(C)(C)c1nnc(N/N=C/c2cc(Br)ccc2O)n(N)c1=O, the Potency is reported as inconclusive: 35.5 µM [inhibitor, single point].
With Cc1ccccc1NS(=O)(=O)c1ccc2[nH]cc(C(=O)N(C)Cc3ccco3)c(=O)c2c1 the Potency was inconclusive: 35.5 µM [inhibitor, single point].
For COCCN=c1scc(-c2cccs2)n1/N=C(\C)c1ccco1, the Potency was inconclusive: 14.1 µM [inhibitor, partial curve].
For Cc1c(OCc2ccc(C(=O)O)o2)ccc2c3c(c(=O)oc12)CCC3, the Potency was inconclusive: 28.2 µM [inhibitor, single point].
With COc1ccc(CN2CCNC(=O)C2CC(=O)O)cc1OC (stereo not drawn) the Potency was inconclusive: 3.98 µM [inhibitor, full curve, poor fit].
With COc1ccc(N=C2SC(C(=O)O)CC(=O)N2C)cc1 (stereo not drawn) the Potency was inconclusive: 31.6 µM [inhibitor, single point].
For CCOC(=O)c1ccccc1NC(=O)COc1coc(CN2CCc3ccccc32)cc1=O, the Potency was inconclusive: 20 µM [inhibitor, partial curve].
In the case of O=C(Nc1nc(-c2ccccn2)cs1)C1COc2ccccc2O1 (stereo not drawn), the Potency is reported as active: 11.2 µM.
In the case of Cc1ccn2cc(CC(=O)O)nc2c1, the Potency is reported as inconclusive: 31.6 µM [inhibitor, single point].
In the case of CCC1CCC2(CC1)NC(=O)N(CC(=O)Nc1ccc(OC)c(Cl)c1)C2=O (stereo not drawn), the Potency is reported as “inactive”.
For COc1ccc(C2CC(c3ccc(Cl)cc3Cl)n3nc(N)nc3N2)cc1 (stereo not drawn), the Potency was inconclusive: 3.98 µM [inhibitor, single point].
With NC(=O)COC(=O)c1cccc(S(=O)(=O)N2CCN(c3ccccc3)CC2)c1 the Potency was “inactive”.
For COc1ccc(C(=O)CSc2ncn[nH]2)cc1OC, the Potency was “inactive”.
For CC1CN(CCCCOc2ccc3ccccc3c2)CC(C)O1 (stereo not drawn), the Potency was “inactive”.
Cc1cccc(C(C)C)c1NC(=O)COC(=O)Cc1ccsc1 was tested, and the Potency was inconclusive: 0.794 µM [inhibitor, single point].
For O=C(N/N=C/c1ccco1)c1cccc(N2Cc3ccccc3C2)c1, the Potency was inconclusive: 28.2 µM [inhibitor, single point].
In the case of CCN(CC)S(=O)(=O)c1ccc(NN=C2CCN(C(C)C)CC2)c([N+](=O)[O-])c1, the Potency is reported as inconclusive: 31.6 µM [inhibitor, single point].
With CSc1ccccc1NC(=O)c1cccnc1 the Potency was inconclusive: 39.8 µM [inhibitor, single point].
With Fc1ccc(N2CCN(Cc3c[nH]c4ccccc34)CC2)cc1 the Potency was inconclusive: 22.4 µM [inhibitor, partial curve].
With CCOc1cccc(C(=O)Nc2ccc(N(CC)CC)cc2)c1 the Potency was inconclusive: 25.1 µM [inhibitor, single point].
In the case of O=C(C[C@H]1C[C@H](C(=O)N2CCOCC2)[C@@]2(CCC3CCCC3)c3[nH]c4cc(-c5ccco5)ccc4c3CCN2C1=O)NCCc1ccccn1, the Potency is reported as inconclusive: 31.6 µM [inhibitor, single point].
In the case of Cc1csc(C(=O)O)c1-n1cccc1, the Potency is reported as inconclusive: 35.5 µM [inhibitor, single point].
For Cc1ccc(S(=O)(=O)Nc2ccc3nc(-c4cccn4C)[nH]c3c2)cc1, the Potency was inconclusive: 31.6 µM [inhibitor, single point].
For O=C(CSc1ccc2nnc(-c3ccccn3)n2n1)N1CCN(c2ccccc2)CC1, the Potency was inconclusive: 25.1 µM [inhibitor, single point].
For Cc1ccc(S(=O)(=O)N2CCC[C@H]2C(=O)Nc2ccc(F)cc2C)cc1, the Potency was “inactive”.
With COC(=O)[C@@]1(Cc2ccc(F)cc2)[C@H]2c3cc(C(=O)N(C)C)n(CCSCCO)c3C[C@H]2CN1C(=O)c1ccccc1 the Potency was “inactive”.
With COc1ccc(C2CC(C(F)(F)F)n3nc(C(=O)N(C)Cc4cn(C)nc4C)c(Cl)c3N2)cc1 (stereo not drawn) the Potency was “inactive”.
For COCCCN1C(=O)C(=O)/C(=C(/O)c2ccc(C)cc2)C1/C=C/c1ccccc1 (stereo not drawn), the Potency was “inactive”.
COC(=O)Nc1nn(Cc2ccccc2F)cc1Br was tested, and the Potency was inconclusive: 5.62 µM [inhibitor, single point].
NNC(=O)C1CCCN1S(=O)(=O)c1ccc(Cl)cc1 (stereo not drawn) was tested, and the Potency was “inactive”.
In the case of O=C1C2C3c4ccccc4C(c4ccccc43)C2C(=O)N1c1cccnc1 (stereo not drawn), the Potency is reported as inconclusive: 6.31 µM [inhibitor, single point].
For O=C(O)c1ccc(NC(=O)c2ccccc2NC(=O)c2cccc(F)c2)cc1, the Potency was “inactive”.
For CCCOc1ccc(/C(O)=C2\C(=O)C(=O)N(CCCN(C)C)C23C(=O)N(C)c2ccccc23)cc1 (stereo not drawn), the Potency was “inactive”.
With C/C=C/c1ccc(OCCCCN2CCN(CC)CC2)c(OC)c1 the Potency was “inactive”.
In the case of COc1cc(C(=O)NCC(c2cccs2)N2CCc3ccccc32)cc(OC)c1OC (stereo not drawn), the Potency is reported as inconclusive: 17.8 µM [inhibitor, partial curve].
With Cc1ccc(CSC2=Nc3ccccc3C3=NC(CC(=O)NCc4ccco4)C(=O)N23)cc1 (stereo not drawn) the Potency was inconclusive: 35.5 µM [inhibitor, single point].
Cc1ccc(Nc2nc(N)nc(CN3CCCCCC3)n2)c(C)c1 was tested, and the Potency was inconclusive: 5.62 µM [inhibitor, single point].
For C#CCOCCOCCOCCNc1nc(N2CCN(C(=O)[C@H](Cc3cc4ccccc4[nH]3)n3cc([C@@H](N)C(C)CC)nn3)CC2)nc(N2CCN(C(=O)[C@H](Cc3cc4ccccc4[nH]3)n3cc([C@@H](N)Cc4ccc(O)cc4)nn3)CC2)n1 (stereo partly drawn), the Potency was inconclusive: 11.2 µM [inhibitor, single point].
CCCc1nnc(NC(=O)CSc2nc3ccccc3[nH]2)s1 was tested, and the Potency was inconclusive: 0.631 µM [inhibitor, single point].
O=C(O)CCCNC(=O)/C(=C\c1ccccc1F)NC(=O)c1ccccc1 was tested, and the Potency was inconclusive: 0.1 µM [inhibitor, full curve, poor fit].
In the case of Cc1ccc(/C=N/c2sc3c(c2C#N)CCC3)o1, the Potency is reported as inconclusive: 20 µM [inhibitor, partial curve].
With Cc1ccc(N=c2sc(C)c(C)n2C)cc1 the Potency was inconclusive: 39.8 µM [inhibitor, single point].
In the case of c1ccc(CSc2nnc(-c3ccncc3)o2)cc1, the Potency is reported as inconclusive: 3.16 µM [inhibitor, single point].
For CC(=O)Nc1cc(ON=C(C)C)cc([N+](=O)[O-])c1, the Potency was “inactive”.
Cc1nn2c(-c3ccncc3)ccnc2c1Cl was tested, and the Potency was inconclusive: 39.8 µM [inhibitor, single point].
With Cc1ccc(-c2nc3c(c(=O)[nH]c(=O)n3Cc3ccccc3)n2C)o1 the Potency was active: 10 µM.
For CC(NC(=O)C1=CC=CN2CCS(=O)(=O)N=C12)c1ccc(Cl)cc1Cl (stereo not drawn), the Potency was inconclusive: 6.31 µM [inhibitor, single point].
In the case of CCOC(=O)c1cnc2c(C(=O)OCC)cnn2c1N, the Potency is reported as “inactive”.
With O=C(NNc1c2ccccc2nc2ccccc12)c1ccc(O)cc1O the Potency was inconclusive: 15.8 µM [inhibitor, partial curve].
Brc1ccc(-c2ccc(CNCc3ccccn3)o2)cc1 was tested, and the Potency was inconclusive: 28.2 µM [inhibitor, single point].
